Measurements taken from PubChem BioAssay AID504332 (National Center for Advancing Translational Sciences (NCATS), 2011).
Among all 350,000 compounds or so, about 31,000 (8.9%) were called active. Inconclusive means that the source gave no clear call. Such entries were picked first, then a sample of the others. The call rests on the fitted dose curve; in most records, active means well fitted inhibition curve with a large enough effect; inconclusive means small, poorly fitted or top-dose-only effect; inactive means no such curve, though single readings can be large or run the other way. Potencies beside an inconclusive call are fits to weak or partial responses and may not hold up.

molecular target: Histone-lysine N-methyltransferase EHMT2 (Homo sapiens) (UniProt Q96KQ7); experiment: qHTS Assay for Inhibitors of Histone Lysine Methyltransferase G9a; details: G9a H3K9 monomethylation, AlphaScreen, 2 h; activity, negative = inhibition: at 59 µM (top of the series) unless noted; further: nearly all actives have a fitted effect of over 75% in size
Chain of UniProt Q96KQ7 (Q96KQ7 whole entry, looked up): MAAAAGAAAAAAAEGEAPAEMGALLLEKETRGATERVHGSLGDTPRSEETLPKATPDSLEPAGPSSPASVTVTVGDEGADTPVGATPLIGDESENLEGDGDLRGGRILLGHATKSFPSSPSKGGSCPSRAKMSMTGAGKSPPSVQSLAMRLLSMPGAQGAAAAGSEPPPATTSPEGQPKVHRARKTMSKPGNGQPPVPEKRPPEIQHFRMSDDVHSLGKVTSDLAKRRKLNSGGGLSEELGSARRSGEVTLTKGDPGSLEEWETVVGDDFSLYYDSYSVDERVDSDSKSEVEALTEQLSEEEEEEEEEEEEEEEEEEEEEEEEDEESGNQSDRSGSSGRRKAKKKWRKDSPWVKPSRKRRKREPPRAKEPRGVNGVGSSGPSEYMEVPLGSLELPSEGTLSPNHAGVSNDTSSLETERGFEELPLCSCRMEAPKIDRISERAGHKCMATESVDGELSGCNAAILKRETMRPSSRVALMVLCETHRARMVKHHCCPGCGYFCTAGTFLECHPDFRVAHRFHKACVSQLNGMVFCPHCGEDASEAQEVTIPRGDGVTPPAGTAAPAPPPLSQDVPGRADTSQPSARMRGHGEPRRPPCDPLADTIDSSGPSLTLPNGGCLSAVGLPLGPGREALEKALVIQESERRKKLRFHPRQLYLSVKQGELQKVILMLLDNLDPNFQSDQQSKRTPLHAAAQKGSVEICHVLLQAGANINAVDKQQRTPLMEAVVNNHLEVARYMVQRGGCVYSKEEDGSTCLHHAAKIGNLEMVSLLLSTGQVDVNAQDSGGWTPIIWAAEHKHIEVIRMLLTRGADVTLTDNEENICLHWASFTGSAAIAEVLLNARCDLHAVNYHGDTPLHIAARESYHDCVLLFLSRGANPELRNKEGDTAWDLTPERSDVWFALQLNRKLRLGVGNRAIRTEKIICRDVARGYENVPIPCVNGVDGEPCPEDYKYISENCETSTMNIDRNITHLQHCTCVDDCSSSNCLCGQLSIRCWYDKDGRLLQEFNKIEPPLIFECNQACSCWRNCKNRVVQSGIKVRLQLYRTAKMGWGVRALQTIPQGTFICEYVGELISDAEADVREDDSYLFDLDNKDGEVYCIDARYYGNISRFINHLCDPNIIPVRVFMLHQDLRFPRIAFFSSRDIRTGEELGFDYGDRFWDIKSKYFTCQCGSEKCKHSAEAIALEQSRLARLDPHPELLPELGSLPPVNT
How it was run: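 Methyltransferase reactions run at room temperature for 2 h (20 nM enzyme, 500 nM biotin-H3K9 peptide, 20 uM SAM) after a 15 min compound preincubation; product detected by AlphaScreen beads and anti-H3K9me1 antibody.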
On the % scale 0 is the no-effect control and ±100 the full control effect; potency means the concentration at half of the fitted maximal effect; tags describe the fitted curve by direction and shape.

SMILES	Potency	activity, negative = inhibition
CCOc1ccc(CN2CCc3nc(N4CCN(c5ccccn5)CC4)ncc3C2)cc1OC	inconclusive: 28.2 µM [inhibitor, single point]	
O=C(Cn1ncc2c3ccccc3n(Cc3ccccc3)c2c1=O)NC1CCCCCC1	inactive	
COc1ccc(NC(=O)CN2CCCC(C)C2)c([N+](=O)[O-])c1 (centres undefined)	inconclusive: 7.08 µM [inhibitor, partial curve]	
Clc1ccc(/C=N/N2CCN(Cc3ccccc3Cl)CC2)cc1	inconclusive: 39.8 µM [inhibitor, partial curve, poor fit]	
CCOC(=O)c1ncn2c1C(=O)OC2(C)C	inconclusive: 70.8 µM [inhibitor, single point]	
COc1cccc(/C=N/Nc2ncnc3scc(-c4ccccc4)c23)c1O	inconclusive: 31.6 µM [inhibitor, single point]	
CCc1nnc(N/N=C\c2ccc(OC(C)=O)c(OC)c2)n1N	inconclusive: 89.1 µM [inhibitor, single point]	
N/C(=N\NC(=O)c1cccs1)c1cc2ccccc2oc1=O	inconclusive: 0.891 µM [inhibitor, full curve, poor fit]	
O=C(CS(=O)(=O)c1ccc(Cl)cc1)NCCS(=O)(=O)c1ccc(Cl)cc1	inactive	
CCN1CN(Cc2ccccc2)CNC1=S	inconclusive: 39.8 µM [inhibitor, single point]	
Cn1c(=O)c2cc(C(=O)NC3CCCCCC3)sc2c2ccccc21	inconclusive: 35.5 µM [inhibitor, partial curve, poor fit]	
CCN(CC)c1ccc(NC(=O)CN2CCN(c3ccc(F)cc3)CC2)cc1	active: 8.91 µM	
CCOCc1nnc(NC(=O)COC)s1	inconclusive: 14.1 µM [inhibitor, partial curve, poor fit]	
COc1cc(CN2CCCCCC2)cc([N+](=O)[O-])c1O		inactive: 20.4% [at 0.501 µM]
CCCc1cnc2c(c1SCc1cccc(F)c1)c(=O)n(C)c(=O)n2C	inconclusive: 3.55 µM [inhibitor, partial curve]	
Cc1ccc(NC(=S)Nc2ccc3cn[nH]c3c2)c(C)c1	inconclusive: 50.1 µM [inhibitor, partial curve]	
Cc1ccccc1-c1cc2nccc(-c3cc(Cl)ccc3O)n2n1	inconclusive: 0.794 µM [inhibitor, full curve, poor fit]	
Cc1ccc(C(=O)c2cn(Cc3ccccc3C)c3nc(C)ccc3c2=O)cc1	inactive	
CCOC(=O)N1CCC(NC(=O)C2CCCCN2S(=O)(=O)c2ccc(F)cc2)CC1 (centres undefined)	inconclusive: 89.1 µM [inhibitor, single point]	
FC(F)(F)c1cccc(N2CCN(CC3CC4C=CC3C4)CC2)c1 (centres undefined)		inconclusive: -79.6% [inhibitor]
Cc1ccc(Nc2nnc(SCC(=O)Nc3cccc(S(=O)(=O)N4CCCCC4)c3)s2)cc1	active: 39.8 µM	
O=c1c2c(-c3ccccc3)csc2nc2n1CCC2		inactive: -36.4% [at 12.7 µM]
CN(Cc1ccccc1)C1CCNCC1		inactive: -8.07% [at 0.501 µM]

SMILES	Potency	activity, negative = inhibition
Nc1nncn1C(=O)c1cccs1	inconclusive: 89.1 µM [inhibitor, partial curve, poor fit]	
O=[N+]([O-])c1cccc(Cl)c1CSc1ccccn1	active: 44.7 µM	
O=C(CSc1ccc(Cl)cc1)OCC(=O)N1CCN(c2ccccc2)CC1	inconclusive: 89.1 µM [inhibitor, partial curve, poor fit]	
O=c1c2ccccc2nc2c3ccccc3c(NCc3cccnc3)nn12	inactive	
COc1ccc(C2C=C(c3ccc(Br)s3)Nc3ncnn32)cc1OC (centres undefined)	active: 11.2 µM	
CN(C(=O)COC(=O)c1nc(Cl)ccc1Cl)C1CCS(=O)(=O)C1 (centres undefined)	inactive	
COc1ccc(OCCN(C)Cc2ccccc2)cc1	inconclusive: 50.1 µM [inhibitor, partial curve, poor fit]	
Nc1nc(CCl)nc(Nc2ccc3ccccc3c2)n1	inconclusive: 70.8 µM [inhibitor, partial curve]	
COc1ccc(CNC(=O)c2cnc3sc(N4CCCC4)nn3c2=O)c(OC)c1	inactive	
Cc1cc(C(=O)NCCC2=CCCCC2)c(C)o1		inconclusive: -77.2% [inhibitor]
CS(=O)(=O)c1ccc(NC(=O)c2cccc(S(=O)(=O)N3CCN(Cc4ccccc4)CC3)c2)cc1	inconclusive: 8.91 µM [inhibitor, full curve]	
COC(=O)c1ccccc1NC(=S)N1CCN(c2ccccn2)CC1	inconclusive: 89.1 µM [inhibitor, single point]	
C=C[C@@H]1c2ccccc2N(S(=O)(=O)c2ccc(C)cc2)[C@H](c2ccccc2C(F)(F)F)C1(C#N)C#N		inactive: -1.51% [at 2.33 µM]
Cc1noc(C)c1CSc1nc2ccccc2nc1NS(=O)(=O)c1ccc(Cl)cc1	inconclusive: 35.5 µM [inhibitor, single point]	
CN(C)c1ccc(/C=N/NC(=O)CCC(=O)NCc2ccccc2)cc1	inconclusive: 8.91 µM [inhibitor, partial curve, poor fit]	
COc1ccc(-c2nc(SCC(=O)NC3CCCC3)c(-c3ccc(C)cc3)[nH]2)cc1OC	inconclusive: 22.4 µM [inhibitor, partial curve, poor fit]	
COc1ccc(C2CC(=O)N(CC(=O)Nc3ccc(C)c(Cl)c3)c3ccccc3S2)cc1OC (centres undefined)	inconclusive: 20 µM [inhibitor, partial curve, poor fit]	
COc1ccc(N2CCN(C(=O)CNC(=O)c3ccc(C(C)(C)C)cc3)CC2)cc1	inconclusive: 6.31 µM [inhibitor, single point]	
CC(C)[C@H](N)c1cn([C@@H](CC(N)=O)C(=O)N2CCNCC2)nn1		inactive: -32.4% [at 12.7 µM]
Cc1csc2ncc(C(=O)Nc3ccccc3F)c(=O)n12	inconclusive: 89.1 µM [inhibitor, single point]	
COc1ccc(NC(=O)N2CCCC3(CCN(C(=O)c4ccco4)CC3)C2)cc1	inconclusive: 5.01 µM [inhibitor, single point]	
Cc1cc(C)cc(C(=O)n2nc(C)c(S(=O)(=O)N3CCOCC3)c2C)c1	inconclusive: 22.4 µM [inhibitor, single point]	
CCOC(=O)Cc1csc(SCn2nnc3ccccc3c2=O)n1	active: 44.7 µM	

SMILES	Potency	activity, negative = inhibition
Cc1ccc(C(=O)OCC(=O)NN2C(=O)NC3(CCC(C)CC3)C2=O)cc1 (centres undefined)	inconclusive: 35.5 µM [inhibitor, partial curve, poor fit]	
C=C(C)CC(NCCc1ccccc1)c1ccco1 (centres undefined)		inconclusive: -62.4% [inhibitor] [at 102 µM]
CCOC(=O)c1sc(NC(=O)CNCc2cccnc2)c(C(=O)OCC)c1C	inactive	
CCN1C(=O)/C(=C\N2CCOCC2)SC1=S	inconclusive: 89.1 µM [inhibitor, single point]	
CCCN(C(=O)COC(=O)CNC(=O)c1ccc2ccccc2c1)c1c(N)n(Cc2ccccc2)c(=O)[nH]c1=O	inconclusive: 56.2 µM [inhibitor, partial curve, poor fit]	
C#CC(C)(CC)NC(=O)Cn1nnc(-c2ccc(OCc3c(F)cccc3Cl)cc2)n1 (centres undefined)	inactive	
Cc1ccc(S(=O)(=O)/N=C2\C=C(Nc3cccc(C(=O)O)c3)C(=O)c3ccccc32)cc1	active: 10 µM	
Cc1ccc(-c2nn(-c3ccccc3)cc2CN(Cc2ccccc2)C(=O)c2ccco2)o1	active: 31.6 µM	
Cc1ccccc1N(CC(=O)NCC1CCCO1)C(=O)CCC(=O)Nc1nccs1 (centres undefined)	inactive	
CCc1ccc(C(=O)OCC(=O)N(CC)c2c(N)n(Cc3ccccc3)c(=O)[nH]c2=O)cc1	inconclusive: 2.51 µM [inhibitor, partial curve, poor fit]	
COc1ccc(CCn2c(C)cc(C(=O)COC(=O)c3cnccn3)c2C)cc1	inconclusive: 11.2 µM [inhibitor, partial curve, poor fit]	
CC1=CC(c2ccc(Cl)cc2)n2nc(NC(=O)CCC(=O)O)nc2N1 (centres undefined)	active: 20 µM	
CCN1CCN(c2cc(SC(C)C)nc(-c3ccc(OC)cc3)n2)CC1		inconclusive: -64.4% [inhibitor]
Cc1ccc(C(=O)NNC(=O)C(C)Oc2ccc3ccccc3c2)o1 (centres undefined)	inconclusive: 89.1 µM [inhibitor, partial curve, poor fit]	
COc1ccc(/C=C/C(=O)NCC(=O)N/N=C(\C)Cc2ccccc2)cc1	inactive	
COc1ccc(OC)c(CNC(=O)CCc2cn(C)c3ccccc23)c1	inconclusive: 39.8 µM [inhibitor, single point]	
CCOC(=O)c1cccc(NC(=O)[C@H](CSCc2ccccc2)N2Cc3ccccc3C2=O)c1	inactive	
CC(C)(C)OC(=O)CNC(=O)c1[nH]cnc1C(=O)NCCCCCNC(=O)OC(C)(C)C	inconclusive: 79.4 µM [inhibitor, single point]	
Cc1cc(C)cc(Nc2nc3cc(Cl)c(Cl)cc3nc2-n2nc(C)cc2C)c1	inactive	
CC1CCc2nc(NC(=O)CN3CCN(c4ccc(F)cc4)CC3)sc2C1 (centres undefined)	inconclusive: 39.8 µM [inhibitor, single point]	
Cc1nn(-c2ncc(C(F)(F)F)cc2Cl)c(=O)n1-c1c(F)cccc1F	active: 79.4 µM	
CCCc1nnc(NC(=O)C(CC)OC(=O)c2cc(C)nc3ccccc23)s1 (centres undefined)	inactive	
CC(C)CN(C(=O)COC(=O)c1ccc(Cl)c(N)c1)c1c(N)n(Cc2ccccc2)c(=O)[nH]c1=O	inconclusive: 70.8 µM [inhibitor, partial curve, poor fit]	
